This note sets out measurements from ChEMBL document CHEMBL4888484, “Replenishing the malaria drug discovery pipeline: Screening and hit evaluation of the MMV Hit Generation Library 1 (HGL1) against asexual blood stage Plasmodium falciparum ,using a nano luciferase reporter read-out” (2022).

Molecules are shown by their SMILES. Out of some 150,000 compounds screened, about 540 (0.36%) showed an effect of 50% or more. The list shows a part of the results.

This assay deals with Plasmodium falciparum. In words: Primary screen in NF54 nanoGlo assay, in single point, at 2uM, 72h; a lower Z score goes with more inhibition. The class given is functional, Erythrocyte. The following applies: timepoint 72 hour.
`CCC1CCCC1NC(=O)NCc1cn(C2CC2)c(=O)[nH]c1=O` (centres undefined): the “% Inhibition” value is given as -4% and the Z score was determined as 0.42.
With `O=C(N1CCO[C@H](c2cccnc2)C1)C1(N2CCCCC2)CCCCC1`, the “% Inhibition” value is -12% and the Z score amounted to 1.21.
As to `Cc1cccc2nc(N3CC[C@@](O)(CN(C)C)C3)oc12`, the “% Inhibition” value is listed as -4% and the Z score is 0.71.
The matching figures for `O=C(NCC1CCC1)c1ccc(OCc2ccccc2)cc1`: -6% and 1.22.
Consider `CNc1ncccc1C(=O)N(Cc1sccc1C)C1CCCC1`, for which the “% Inhibition” value is recorded as -6% and the Z score is 0.71.
As for `CO[C@@H](CNc1nccnc1C#N)c1cccc(Cl)c1`, the “% Inhibition” value is listed as -4% and the Z score was determined as 0.3.
`CCC(C)C(C(=O)O)N(C)S(=O)(=O)c1cccc(OC)c1F` (centres undefined): the “% Inhibition” value is -22% and the Z score is reported as 2.26.
Take `CCOC(=O)c1nnsc1N1CCCCC1`: the “% Inhibition” value is -6% and the Z score amounted to 0.86.
For the compound `Cc1ccc(CN2CCc3c(cc(C(=O)NC(C)(C)C)n3C)C2)cc1`, the “% Inhibition” value is -7% and the Z score came to 1.16.
As for `Cc1[nH]c([C@@H]2CCCN2C(=O)Nc2ccc(Cl)cc2F)nc1-c1ccccc1`, the “% Inhibition” value is 1% and the Z score is -0.23.
`N#Cc1ccc(N2CCCCCC2CC(O)c2ccccc2)nc1` (centres undefined): the “% Inhibition” value was -6% and the Z score was determined as 1.08.
For the compound `CCC[C@H]1CCN(C(=O)c2cc(-c3cn[nH]c3)nc3cc(Cl)ccc23)C1`, the “% Inhibition” value was 0% and the Z score stood at 0.
For `Cc1cc(C)cc(C[C@H]2CC(=O)N(c3ccc4c(c3)OCCO4)C2=O)c1`, the “% Inhibition” value is -4% and the Z score amounted to 0.64.
The matching figures for `Cc1ccccc1NC(=O)Cn1nc2c3ccc(F)cc3ncn2c1=O`: -6% and 0.94.
Turning to `COc1cc(CNc2noc(C)n2)cc(OC)c1OC`, the “% Inhibition” value is recorded as -10% and the Z score is 1.83.
Taken in the same sequence, the figures for `CC[C@@](C)(CCO)NC(=O)C(=O)Nc1ccc(C#N)cc1` were 1% and -0.18.
The matching figures for `OC1CC(c2cc(N[C@@H]3c4ccccc4C[C@@H]3O)ncn2)C1` (some centres undefined): -11% and 1.59.
On to `COc1ccc(CNc2nc(N(C)C)nc3c2CCNCC3)c(OC)c1`, for which the “% Inhibition” value is on record as -7% and the Z score is listed as 0.89.
As to `CCc1ccc(-c2cc(C(=O)Nc3ccc4c(c3)OCO4)c3ccccc3n2)s1`, the “% Inhibition” value is -15% and the Z score came to 2.51.
As for `CC[C@@H](C(=O)Nc1cccnc1)N(C)C`, the “% Inhibition” value is -6% and the Z score stood at 1.18.
With `C[C@@H](c1cccnc1)N(C(=O)CCCc1ccccn1)C1CC1`, the “% Inhibition” value is 8% and the Z score is -1.03.
`COCCn1ccnc1[C@H]1N(c2cc(=O)n(C)c(=O)[nH]2)CC1(C)C`: the “% Inhibition” value is listed as 5% and the Z score is given as -0.89.
The matching figures for `C[C@@H]1[C@@H](c2cccc(F)c2)OCCN1C(=O)CCc1ccccc1C(=O)O`: 8% and -0.93.
Taken in the same sequence, the figures for `O=C(OCCn1cccn1)c1cccc(F)c1Cl` were -6% and 0.6.
Turning to `C=CCN1C[C@@H](C(=O)NCC2CCN(c3ccc(C)nn3)CC2)CC1=O`, the “% Inhibition” value is recorded as -6% and the Z score turned out to be 0.85.
Regarding `O=C(CC[C@H]1CCC(=O)N1)NC1CCC2(CCCCC2)CC1`, the “% Inhibition” value is -13% and the Z score is 1.96.
On to `CCN1CCN(C(=O)C2CCN(c3nnc(C)c4c(C)n(-c5ccc(C)cc5)nc34)CC2)CC1`, for which the “% Inhibition” value was -9% and the Z score worked out at 1.38.
`O=C1C2CCCCC2C(=O)N1CC(O)COCc1ccc2c(c1)OCO2` (centres undefined): the “% Inhibition” value was -5% and the Z score worked out at 0.7.
As for `CCOC(=O)c1nnsc1NC(=O)OC`, the “% Inhibition” value is -11% and the Z score was 1.71.
`O=C(Cc1ccc(F)cc1)NC1(c2cccs2)CCCC1`: the “% Inhibition” value was 9% and the Z score is on record as -1.25.
Take `Cn1cc(CN2CCN3C(=O)N(C4CCCCC4)C[C@H]3C2)cn1`: the “% Inhibition” value is on record as -13% and the Z score was 2.54.
As to `CN(C)S(=O)(=O)Nc1cc(F)cc(F)c1`, the “% Inhibition” value was -7% and the Z score was determined as 1.26.
Regarding `O=C(NCCN1CCCCC1)[C@H]1CCCN(c2ccnc(-c3ccc(F)cc3)n2)C1`, the “% Inhibition” value is reported as 12% and the Z score is -2.23.
As for `Cc1cnc(NC(=O)CN2C(=O)[C@@H]3CCCN3C(=O)c3ccccc32)s1`, the “% Inhibition” value turned out to be 4% and the Z score is given as -0.44.
The matching figures for `Cc1nc(-c2cccc(NC(=O)C3CN(c4nc5c(F)cccc5s4)C3)c2)cs1`: -18% and 2.35.
`O=C(N[C@@H](CC(F)(F)F)C1CC1)c1ccn2nnnc2c1`: the “% Inhibition” value is recorded as 2% and the Z score is given as -0.33.
`Cc1oc(C(C)C)nc1C(=O)N1CC(C(F)(F)F)C1`: the “% Inhibition” value is reported as -7% and the Z score came to 1.19.
Consider `Cc1nn(CCO)c(NCc2ccc(Br)o2)c1C`, for which the “% Inhibition” value is -17% and the Z score amounted to 2.23.
Taken in the same sequence, the figures for `CN(c1cccc(C(=O)NC[C@H]2CCCO2)c1)S(C)(=O)=O` were -12% and 1.66.
Regarding `Cc1nnc(O)c(CNC(=O)COC2CCCC(C)C2)c1C` (centres undefined), the “% Inhibition” value is on record as 34% and the Z score is given as -4.54.
As for `CCC(NC(=O)N1CCC[C@H]1CO)c1ccccc1Br` (some centres undefined), the “% Inhibition” value was -6% and the Z score is recorded as 1.13.
`COc1ccc(CNC(=O)c2ccc(-c3cccnc3)cc2)c(OC)c1`: the “% Inhibition” value was -7% and the Z score came out at 0.91.

As a reminder, the % Inhibition is the change of the read-out against control, counted positive when it falls.
